Experimental data reported in PubChem BioAssay AID1346428 (National Center for Advancing Translational Sciences (NCATS), 2018).
Values joined by “and” are separate entries in the source; they are usually repeats but may differ in a detail not shown here. Equal values may be shown once. In all, about 48,000 compounds went through this assay and about 1,200 (2.5%) were called active. Inconclusive results (about 2%) are left out.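 The calls were made as follows: active = activation of at least 60% and not above a set upper limit (about 1 call in 100 departs from these limits); inconclusive = activation of 40% to 60%, or above that upper limit; inactive = activation under 40%.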 The list shows a part of the results.
Also: 0% is about no effect.

The molecules below were run against Probable G-protein coupled receptor 32 (Homo sapiens) (UniProt O75388) (assay: qHTS for Agonists of Human Resolvin D1 Receptor DRV1). Details: CHO-K1 GPR32 beta-arrestin PathHunter luminescence, 90 min; at 76.9 µM; hits give high values; zero percent set by DMSO-only wells.
UniProt O75388, sequence (O75388 whole entry, looked up, the tested form may be a part): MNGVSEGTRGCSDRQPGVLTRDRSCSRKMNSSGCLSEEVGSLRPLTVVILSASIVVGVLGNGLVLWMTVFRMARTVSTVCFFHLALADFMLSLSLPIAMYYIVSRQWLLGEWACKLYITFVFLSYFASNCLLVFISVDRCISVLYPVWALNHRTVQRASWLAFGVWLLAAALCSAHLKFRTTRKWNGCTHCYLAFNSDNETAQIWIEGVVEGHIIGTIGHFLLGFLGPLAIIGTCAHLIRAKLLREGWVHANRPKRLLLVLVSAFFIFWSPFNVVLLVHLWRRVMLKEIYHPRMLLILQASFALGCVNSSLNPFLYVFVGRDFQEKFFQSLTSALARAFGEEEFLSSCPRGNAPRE
Summary of the method: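 PathHunter enzyme-fragment complementation, CHO-K1 GPR32 stable line; 2,500 cells/well, overnight attach; cpd 90 min 37 °C 5% CO2; detection reagent 1 h RT; chemiluminescence. DMSO = EC0.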
For `COc1ccc(NC(=O)CSc2oc(-c3cccs3)nc2S(=O)(=O)c2ccc(C)cc2)c(OC)c1`, the activation was inactive: -9.86%.
For `O=C(Cc1cccs1)NC1CC(=O)N(c2cccc(F)c2)C1` (stereo not given), the activation was inactive: -9.39%.
`CCOC(=O)c1c(C)oc2ncnc(N3CCN(c4ccccc4F)CC3)c12` was tested, and the activation was inactive: -48.6%.
With `Cc1cc(C)n2c(Nc3ccc(Cl)cc3)c(-c3ccsc3)nc2n1` the activation was inactive: -34.2%.
`COc1cc2nc(NCCC(C)C)n3nc(-c4ccccc4)nc3c2cc1OC` was tested, and the activation was inactive: -6.04%.
In the case of `CCCCS(=O)(=O)c1oc(-c2cccs2)nc1S(=O)(=O)c1ccccc1`, the activation is reported as inactive: -14%.
For `COc1cccc(C(=O)Nc2ccc3nc(SCC(=O)N4CCOCC4)sc3c2)c1`, the activation was inactive: -11.9%.
With `Cn1c(=O)n(C)c2cc(NS(=O)(=O)c3ccc(F)cc3)ccc21` the activation was inactive: 7.69%.
For `Cc1ccc(OCC(=O)N(c2ccc(C)cc2)S(=O)(=O)c2ccc(Cl)cc2)cc1`, the activation was inactive: -5.41%.
With `Cc1ccc2c(CN3CCN(C(=O)c4ccc(F)cc4)CC3)cc(=O)oc2c1` the activation was inactive: 6.45%.
For `O=C(CS(=O)(=O)c1cccc2nsnc12)Nc1ccccc1`, the activation was inactive: 9.16%.
For `CCc1c2c(nc3ccc(OC(=O)N4CCC(N5CCCCC5)CC4)cc13)-c1cc3c(c(=O)n1C2)COC(=O)[C@]3(O)CC`, the activation was inactive: -7.11%.
In the case of `CCOc1ccccc1NC(=O)CSc1nc(=O)[nH]c2c1CCCC2`, the activation is reported as inactive: 2.12%.
In the case of `CSCCC(NS(=O)(=O)c1ccc2c(c1)oc(=O)n2C)C(=O)N1CCN(c2cc(C)ccc2C)CC1` (stereo not given), the activation is reported as inactive: -25.7%.
For `COc1ccc(C2CC(=O)NC(NC(=O)c3ccc(Br)cc3)=N2)c(OC)c1OC` (stereo not given), the activation was inactive: -3.6%.
In the case of `CC(C)(C)c1ccc(C(=O)NCCc2csc3nc(-c4ccccc4F)nn23)cc1`, the activation is reported as inactive: -4.57%.
With `COc1ccccc1CNC(=O)CN1C(=O)COc2ccc(S(=O)(=O)Nc3ccccc3)cc21` the activation was inactive: -6.1%.
`Cc1nc2ccc(S(=O)(=O)N(CC(=O)Nc3cccc(F)c3)Cc3ccccc3)cc2s1` was tested, and the activation was inactive: 16.8%.
For `CC(C)CCn1c(=O)c2sccc2n2c(CCCC(=O)NCCc3ccccc3)nnc12`, the activation was inactive: -21.7%.
In the case of `O=C1CC(c2ccccc2)c2c(n3ncnc3[nH]c2=O)N1` (stereo not given), the activation is reported as inactive: 3.63%.
With `CCc1cccc(NC(=O)Cn2c(=O)n(CC(=O)NCCc3ccccc3)c(=O)c3ccccc32)c1` the activation was active: 81.2%.
With `C[C@@H](O)[C@H](N)C(=O)O` the activation was inactive: -1.25%.
With `O=C(NCCc1ccc(Cl)cc1)c1ccc(CS(=O)Cc2ccccc2Cl)o1` (stereo not given) the activation was inactive: -6.69%.
In the case of `OC[C@H]1O[C@@H](OCCc2ccc(O)cc2)[C@H](O)[C@@H](O)[C@H]1O`, the activation is reported as inactive: 2.72%.
In the case of `COc1cccc(CNC(=O)c2oc3c(c2C)-c2nn(Cc4cccc(Cl)c4)cc2CC3)c1OC`, the activation is reported as inactive: 2.96%.
With `COc1ccccc1C(=O)N1CCC(c2noc(-c3ccc(S(=O)(=O)N4CCCC4)cc3)n2)CC1` the activation was inactive: 8.97%.
In the case of `CC(C)N(C)C1CCN(S(=O)(=O)c2ccc3[nH]c(=O)ccc3c2)CC1`, the activation is reported as inactive: 15.1%.
`COc1ccc(NC(=O)Cn2c(SCc3ccc(F)cc3)nc3cccnc32)cc1OC` was tested, and the activation was inactive: 26.1%.
With `Cc1cccc(NC(=O)C2CCN(c3nc4ccccc4[nH]3)CC2)c1C` the activation was inactive: -9.38%.
With `Cc1cc(C)cc(N2C(=O)CSC23C(=O)N(CC(=O)Nc2ccc(F)cc2F)c2ccccc23)c1` (stereo not given) the activation was inactive: 3.49%.
With `Cc1ccc(C)c(CNC(=O)CCn2cccn2)c1` the activation was inactive: -6.5%.
`O=C(Nc1ccc2nc(SCC(=O)N3CCCC3)sc2c1)c1cccc(Br)c1` was tested, and the activation was inactive: -9.32%.
In the case of `CCOC(=O)c1oc2c(c1C)-c1nn(Cc3c(F)cccc3Cl)cc1CC2`, the activation is reported as inactive: -17.1%.
`CCCCc1nn2c(=O)cc(COC(=O)c3ccc(NC(=O)CCc4ccccc4)cc3)nc2s1` was tested, and the activation was inactive: 13.9%.
In the case of `CCOCCCN1C(=O)c2[nH]nc(-c3ccccc3O)c2C1c1ccc(CC)cc1` (stereo not given), the activation is reported as inactive: -10.1%.
In the case of `CCc1ccc(NC(=O)Cc2c(C(=O)O)c(C)cn2C)cc1`, the activation is reported as inactive: -3.26%.
`Cc1ccccc1Nc1c(-c2ccc(Br)o2)nc2ccc(Cl)cn12` was tested, and the activation was inactive: -12%.
In the case of `CC(C)CCNC(=O)Nc1ccc2c(c1)N(Cc1ccccc1)C(=O)c1ccccc1S2`, the activation is reported as inactive: -20.5%.
`Cc1ccc(S(=O)(=O)CC(=O)Nc2sc3c(c2C(N)=O)CCCC3)cc1` was tested, and the activation was inactive: -17.6%.
In the case of `Cc1ccc(NC(=O)CCN2CCN(CCO)CC2)cc1C`, the activation is reported as inactive: -10.1%.
With `COc1ccc(CCNC(=O)c2ccc3c(c2)N(Cc2ccc(Cl)cc2)C(=O)c2ccccc2S3)cc1OC` the activation was inactive: -16.2%.
In the case of `CCOc1ccc(-c2nn(CC(=O)NC3CCCC3)c3c2cnc2ccc(C)cc23)cc1`, the activation is reported as inactive: -9.39%.
`COc1cc(OC)c(NC(=O)c2cc(C)nc3c2c(C)nn3-c2ccc(C)cc2)cc1Cl` was tested, and the activation was inactive: 2.62%.
With `CCN(Cc1nc(-c2ccc(OC)cc2)oc1C)S(=O)(=O)c1ccc(C)cc1` the activation was inactive: -2.64%.
`Cc1c(CCNC(=O)c2ccco2)sc2nc(-c3ccc(F)cc3)nn12` was tested, and the activation was inactive: -12.4%.
`Cc1ccc(NC(=O)CN2CCSc3ccc(S(=O)(=O)N4CCCC4)cc32)cc1` was tested, and the activation was inactive: -13%.
For `CCCCN(CC)C(=O)c1cc2c(=O)n3cccc(C)c3nc2n1C`, the activation was inactive: -17.7%.
For `CCc1ccc(Oc2c(C(F)(F)F)oc3c(CN4CCC(C)CC4)c(O)ccc3c2=O)cc1`, the activation was inactive: 22.6%.
For `CC(=O)c1ccc(NC(=O)Cn2c(-n3nc(C)cc3C)nc(C)c(C)c2=O)cc1`, the activation was inactive: -12%.
With `CCOc1ccccc1Nc1nnc(-c2cc3cc(OC)ccc3oc2=O)s1` the activation was inactive: 0.59%.
For `CCN(CC)c1cc2c(cc1F)c(=O)c(S(=O)(=O)c1ccc(OC)cc1)cn2Cc1ccccc1`, the activation was inactive: -3.41%.
In the case of `CCOC(=O)Cc1ccc(NC(=O)N2CCC(CN3CCCCCC3)CC2)cc1`, the activation is reported as inactive: -21.1%.
In the case of `COc1ccc(C(=O)N2CCC(C(=O)Nc3ccc(Cl)cc3)CC2)cc1`, the activation is reported as inactive: 28.7%.
For `CCCCN(CC)CCCNC(=O)Cn1ncc2c3ccccc3n(C)c2c1=O`, the activation was inactive: -14.7%.
`CCOc1ccc(S(=O)(=O)N(CC(=O)NCc2ccccc2OC)c2ccccc2)cc1` was tested, and the activation was inactive: -2.63%.
With `COc1cccc(CSc2nc3n(n2)C(CC(C)C)C(C(=O)Nc2ccccc2OC)=C(C)N3)c1` (stereo not given) the activation was inactive: 21.8%.
For `Cc1cc(=O)n2nc(N(C)CC(=O)NCc3cccc(Br)c3)sc2n1`, the activation was inactive: -14.5%.
With `Cc1ccc(/C(=C\CN2CCCC2)c2ccccn2)cc1` the activation was inactive: 11.1% and inactive: -22%.
`CCOc1ccc(OCC)c(NC(=O)Cn2nc(CC)n3c(cc4sccc43)c2=O)c1` was tested, and the activation was inactive: -16.9%.
For `CCOC(=O)c1ccc(NC(=O)NCCOCCn2c(=O)oc3ccccc32)cc1`, the activation was inactive: 13.2%.
With `CCCC12CN3CC(CCC)(CN(C1)C3c1ccccc1)C2=O` (stereo not given) the activation was inactive: -5.45%.
`CCOC(=O)c1cc(S(=O)(=O)N2CCN(c3ccc(C(C)=O)cc3)CC2)[nH]n1` was tested, and the activation was inactive: -17%.
For `CCS(=O)(=O)c1nc(S(=O)(=O)c2ccc(C)cc2)c(NCCCOC)s1`, the activation was inactive: -3.06%.
In the case of `COc1ccc(N2CC(NC(=O)c3ccco3)CC2=O)cc1` (stereo not given), the activation is reported as inactive: -2.49%.
For `Nc1cc(=O)nc(SCC(=O)Nc2ccc(F)cc2)n1CCc1ccccc1`, the activation was inactive: 2.66%.
`O=c1onc2n1-c1cc(Br)ccc1OC2` was tested, and the activation was active: 64.5%.
`CCn1c(CNC(=O)c2ccc(OC)cc2)nnc1SCC(=O)Nc1ccc(C)cc1` was tested, and the activation was inactive: 11.4%.
In the case of `Cc1cc2oc3c(c(=O)c2cc1C)C1(C(=O)N(C)c2ccccc21)N(CCO)C3=O` (stereo not given), the activation is reported as inactive: -16.4%.
With `CCN(CC)CCNC(=O)c1ccc2nc(CCc3ccccc3)oc2c1` the activation was inactive: 9.96%.
`COc1ccccc1NC(=O)C1CCN(C(=O)c2sc3nc[nH]c(=O)c3c2C)CC1` was tested, and the activation was inactive: -14.9%.
`O=C(Nc1ccccc1Br)C(Cc1ccccc1)NS(=O)(=O)c1cccc2nsnc12` (stereo not given) was tested, and the activation was inactive: -22.3%.
In the case of `COc1ccc(CNC(=O)Cn2ncc3c([nH]c4ccccc43)c2=O)cc1`, the activation is reported as inactive: 5.62%.
With `Cc1cccc(CCNC(=O)CCc2c(C)nc3c4c(C)cc(C)nc4nn3c2C)c1` the activation was inactive: -9.26%.
For `Cc1nn(-c2ccc(N3CCCC3)nn2)c(C)c1CCC(=O)Nc1ccc(F)cc1F`, the activation was inactive: -5.82%.
With `CCc1cccc(C)c1NC(=O)Cn1c(=O)cc(C)c2c(C)nn(-c3cccc(F)c3)c21` the activation was inactive: -5.7%.
For `Cc1c(C(=O)Nc2ccccc2F)sc2ncnc(N(C)C3CCCCC3)c12`, the activation was inactive: 11.9%.
With `COc1ccccc1N1CCN(c2cc(C)nc3nc(-c4ccc(C)cc4)nn23)CC1` the activation was inactive: -13%.
For `O=C(NCc1ccc(F)cc1)c1ccc(Nc2nc3ccccc3n3nnnc23)cc1`, the activation was inactive: -0.273%.
`CCCc1ccc(-c2ccc(C(=O)Oc3ccc(OCC)cc3)cc2)nc1` was tested, and the activation was inactive: 9.13%.
In the case of `CCCCN(C)S(=O)(=O)c1ccc(C(=O)Nc2sc3c(c2C(N)=O)CC(C)(C)NC3(C)C)cc1`, the activation is reported as inactive: 13.1%.
With `CCN(Cc1ccccc1)C(=O)Cn1c(=O)n(-c2ccc(Cl)cc2)c(=O)c2c(C)c(C(=O)N(C)C)sc21` the activation was inactive: -12.3%.
With `Cc1c(CCC(=O)NCc2cccc(Cl)c2)c(=O)oc2c(C)c(O)ccc12` the activation was inactive: 23.3%.
In the case of `Cc1ccc(CCNC(=O)CS(=O)Cc2nc(-c3ccccc3C)oc2C)cc1` (stereo not given), the activation is reported as inactive: 3.04%.
With `O=C(CSc1nc2c(oc3ccccc32)c(=O)n1Cc1ccco1)Nc1ccccc1Cl` the activation was inactive: -11%.
With `O=C(Cn1cnc2c(oc3ccccc32)c1=O)Nc1ccc(F)cc1F` the activation was inactive: -15.4%.
